{"source": "paper PMC12136788", "binders": {"B1": {"name": "chr17:75064992:75065093:+|3pUTR|ENSG00000180901|msi1|total|mutant (ssRNA)", "RNA": "GGGAGUUCUACAGUCCGACGAUCAGGCGCUUGUCCCUGUCUGCUUUCCUGGGGCAUGCCUGAUCAGCGUGGGCUGGAGCUCCCCGACCAACCCCAGCUUUCUCACCAGGUUCAGCAAGGAGGCCUGGGGGUCAGACACCAAUGCAACAGAGGAUUGAGCAUCA"}, "B2": {"name": "chr12:68660398:68660499:+|3pUTR|ENSG00000127314|msi1|FALSE|unique (ssRNA)", "RNA": "GGGAGUUCUACAGUCCGACGAUCUUGAGGUGGCCAAAUGUAAACUAAAAGCCUUAAUUAAAGUGGUGCAAUUUUGUAUAACUUAGCAUCAGUAGUUCAAUAAAUUUGGAUUGCCAUGCAAGGGCUUGCAUUAUAAUUACUUGCCAACAGAGGAUUGAGCAUCA"}, "B3": {"name": "chr5:136976780:136976881:-|3pUTR|ENSG00000152377|msi1|FALSE|unique (ssRNA)", "RNA": "GGGAGUUCUACAGUCCGACGAUCCUUAAAUUAGCAUGUUCCAAUCCAGUCGGCAUUGCCUGAAUACAGUAGCAUCAUACCUAUAGUUGGUCUUAGAUAAGAAAUGAACUACUUGAUAUAGCAAAGUCCUUUGGCUUCGUAAAUCAACAGAGGAUUGAGCAUCA"}, "B4": {"name": "chr8:76866408:76866523:+|3pUTR|ENSG00000091656|unk|total|mutant (ssRNA)", "RNA": "GGGAGUUCUACAGUCCGACGAUCUAUUCUAUACAUUUUAUGUGAACUUUUUUAAUGUCUUUAAUUUGGAUUUUUUUUUUUUUCCGUAUUUUAACAUUUAUUUUAAUCCUGAAGACACUUUUUUGAUUGUGUUUCGUAAGAGACCAACAGAGGAUUGAGCAUCA"}, "B5": {"name": "chr1:207898972:207899226:-|CDS|ENSG00000174059|control|control|control (ssRNA)", "RNA": "GGGAGUUCUACAGUCCGACGAUCACAACCUUGAAGCCUAGCCUGUCACCUGGAAAUGUUUCAGACCUUUCAACCACUAGCACUAGCCUUGCAACAUCUCCCACUAAACCCUAUACAUCAUCUUCUCCUAUCCUAAGUGACAUCCAACAGAGGAUUGAGCAUCA"}, "B6": {"name": "ENSG00000105953:stop:overlap|stop_codon|ENSG00000105953|stop_codon|NA|stop_codon (ssRNA)", "RNA": "GGGAGUUCUACAGUCCGACGAUCCGGAGCUGCAGCGCCUCCUGGACACGGCCUUCGACCUGGACGUCUUCAAGAACUUCUCGUAGAUGCUGCCUAGGGUUGCUUGGGCCACUGCCCUCUCCACACCCAUGACUGCCCCUUGCUCAACAGAGGAUUGAGCAUCA"}, "B7": {"name": "ENSG00000198589:be:win_6051|CDS|ENSG00000198589|bound_else_gene|NA|bound_elsewhere_windowed (ssRNA)", "RNA": "GGGAGUUCUACAGUCCGACGAUCAGAUGAAGAUAUCCUUGCUAAAGGAAAACAGUCCAUCAGGAGUCAGGCUUUAGGAAAUCAGAACUCAGAAAACGAGAUCCUCCUGGAAGGCGAUGAUGAUACUCUGUCAUCCGUGGAUGACAACAGAGGAUUGAGCAUCA"}, "B8": {"name": "chr1:32195301:32195402:+|3pUTR|ENSG00000084652|msi1|FALSE|unique (ssRNA)", "RNA": "GGGAGUUCUACAGUCCGACGAUCUGACCUGGCUGGCAUCUGGCACUUGCAAUUUUGGAUUUUGUGGGUCAGUUUUACGUACAUAGGGCAUUUUGCAAGGCCUUGCAAAUGCAUUUAUACCUGUAAGUGUACAGUGGGCUUGCACAACAGAGGAUUGAGCAUCA"}, "B9": {"name": "ENSG00000107863:be:win_4851|CDS|ENSG00000107863|bound_else_gene|NA|bound_elsewhere_windowed (ssRNA)", "RNA": "GGGAGUUCUACAGUCCGACGAUCCGAGGCAGAUGACGAGAGAAGCGAACUCAUCAGUGAAGGGCGGCCUGUGGAAACCGACAGCGAGAGCGAGUUUCCCGUGUUCCCCACAGCCUUGACUUCAGAGAGGCUUUUCCGAGGAAACAACAGAGGAUUGAGCAUCA"}, "B10": {"name": "ENSG00000124766:be:win_1051|CDS|ENSG00000124766|bound_else_gene|NA|bound_elsewhere_windowed (ssRNA)", "RNA": "GGGAGUUCUACAGUCCGACGAUCGCCGGCCGCUCGCCCGCCGACCACCGCGGCUACGCCAGCCUGCGCGCCGCCUCGCCCGCCCCGUCCAGCGCGCCCUCGCACGCGUCCUCCUCGGCCUCGUCCCACUCCUCCUCUUCCUCCCAACAGAGGAUUGAGCAUCA"}, "B11": {"name": "chr3:45835589:45835784:-|CDS|ENSG00000163818|control|control|control (ssRNA)", "RNA": "GGGAGUUCUACAGUCCGACGAUCGACACCUUCACCAUAGAUGAAGUCUCUGAAGUCCUCAAUGGAUUACAAGCUGUGGUUCAUAGUGAGGUGGAAUCUGAGCUCAUCAACACUGCCUAUACCAAUGUGUUACUUCUGCGACAGCAACAGAGGAUUGAGCAUCA"}, "B12": {"name": "chr6:125889563:125889680:+|CDS|ENSG00000111912|unk|total|mutant (ssRNA)", "RNA": "GGGAGUUCUACAGUCCGACGAUCCAAGCAGUCUGGUUCGCCAGAAAGCCGAGCCGAAAACACACUGAACAUACAUGAAGAUUCCGAUAAAGUUAAACUCAUUGAAUAUUACCUGACUAAGAACAAAGAAGGGCCACAGGUAUCCAACAGAGGAUUGAGCAUCA"}, "B13": {"name": "chr4:168927217:168927233:+|3pUTR|ENSG00000129116|msi1_unk|total|mutant (ssRNA)", "RNA": "GGGAGUUCUACAGUCCGACGAUCAACCACCCAAAUGACCAAGGCAUAUACCGUAUUUGGAGGAAUCAGGGGUUUGGAAGGAGCCGGGAGGAGAAUGAAGGAAAAUGCAACCAGCAUGAUUACCGUGUGUUCAUUCCGAUAAAACAACAGAGGAUUGAGCAUCA"}, "B14": {"name": "chr17:142788:147440:-|three_prime_utr|ENSG00000272636|control|control|control (ssRNA)", "RNA": "GGGAGUUCUACAGUCCGACGAUCGAGACCUCAGCACCUGCCCAGGGGAAGGGGACACGCCCAUCUGGGAGCAAAGACCCUUCUAGAGGCCAGCCCCGGCUGAGAGGACAGGAGUGUGGGGGCGCCUUGGCGGACAGUGGGAACCAACAGAGGAUUGAGCAUCA"}, "B15": {"name": "ENSG00000136451:be:win_1801|3pUTR|ENSG00000136451|bound_else_gene|NA|bound_elsewhere_windowed (ssRNA)", "RNA": "GGGAGUUCUACAGUCCGACGAUCGCUUAAACAGGAUAGUAGUUGGCAAGAUGAAAUGCCAGAAUUAAAACCAAUCAUAAGUAGAACCCACUUCAAAAUAAAAAAACAGCAUUACUAUUUCUAAUCCCAAGGAAUCACUUUAUUCAACAGAGGAUUGAGCAUCA"}, "B16": {"name": "chr15:19964665:19964972:-|CDS|ENSG00000188403|control|control|control (ssRNA)", "RNA": "GGGAGUUCUACAGUCCGACGAUCAUGCACUGGGUGUGCCAGGCCCAUGCACAAGGGCUUGAGUGGAUGGGAUUGGUGUGCCCUAGUGAUGGCAGCACAAGCUAUGCACAGAAGUUCCAGGGCAGAGUCACCAUAACCAGGGACCAACAGAGGAUUGAGCAUCA"}, "B17": {"name": "chr4:168926953:168927063:+|3pUTR|ENSG00000129116|msi1_unk|FALSE|overlapping (ssRNA)", "RNA": "GGGAGUUCUACAGUCCGACGAUCCAAAAGAGUUUUCUAACAAGGUUAAUACCUUAGUUCUUAACAUUUUUUUUCUUUAUGUGUAGUGUUUUCAUGCUACCUUGGUAGGAAACUUAUUUACAAACCAUAUUAAAAGGCUAAUUUCAACAGAGGAUUGAGCAUCA"}, "B18": {"name": "chr3:44446857:44446958:-|CDS|ENSG00000185219|msi1|FALSE|unique (ssRNA)", "RNA": "GGGAGUUCUACAGUCCGACGAUCGGGAGACAUACCCUUUCCAGUCACCAGAGGAAACACACCAGAGCAGCACAGGCUGAACGUAGCCCGCCUGCACGGUCUUCCUCUCAGGACACAAAGUUGAGAUUACAGAAGCUAAAACCACAACAGAGGAUUGAGCAUCA"}, "B19": {"name": "chr2:227556236:227556337:+|3pUTR|ENSG00000173744|msi1|FALSE|bound_elsewhere (ssRNA)", "RNA": "GGGAGUUCUACAGUCCGACGAUCUGUUGAAUGCCUUUUUGCAAUGAUGACUGAGUUGUUAUCAUAGUAUUUUAAAACCUGUAUAGUGUUUUAGACUUGUUAAAACAUUGCUGUCUAGUGUACAUCUAGCUAAAAGUGUGGUUUCAACAGAGGAUUGAGCAUCA"}, "B20": {"name": "chr15:60490033:60490134:-|3pUTR|ENSG00000069667|unk|FALSE|unique (ssRNA)", "RNA": "GGGAGUUCUACAGUCCGACGAUCUGCUGGAUUUGGGACAUGCUUUUCUCUUUAAAUACAUAAUAUCAUUAUAUAAAUUAUUCUAGAGUGUAUUUAAUUAGGAUAAAAUUACUUCCUUAGUAUGGAUAUUUGACAUCUAUAGGGCAACAGAGGAUUGAGCAUCA"}, "B21": {"name": "chr2:96185838:96185916:-|3pUTR|ENSG00000084090|msi1_unk|FALSE|overlapping (ssRNA)", "RNA": "GGGAGUUCUACAGUCCGACGAUCUGGGAGACUAAUCCUUUUAGAUAGUAGCUUUUUGAUGCUCAAAACAUCACAUUUAAAUUUAGUUUAAAAAUUUUUUAACUUUUGUGUCAAAUAGGAGUUGAGGAAUUGAGCAGGAUUCUACAACAGAGGAUUGAGCAUCA"}, "B22": {"name": "chr1:113797602:113797710:-|CDS|ENSG00000081019|unk|total|mutant (ssRNA)", "RNA": "GGGAGUUCUACAGUCCGACGAUCUUUAUGACUCACCAGGAACAUUCUAUUCGCCGAAAUUUCUUAAAAACAGGUACUAAAUUCCGCAACUUUAUUCAUGAGGAACACCAGUCCAAUGGUGGUGCUCUUGUCCUUCAUGCUUACCAACAGAGGAUUGAGCAUCA"}}, "note": "The list shows a part of the results."}
{"molecular_target": "T1, UNK ZnF1-6 (called full-length) (human, UniProt Q9C0B0 30-357)", "T1 sequence": "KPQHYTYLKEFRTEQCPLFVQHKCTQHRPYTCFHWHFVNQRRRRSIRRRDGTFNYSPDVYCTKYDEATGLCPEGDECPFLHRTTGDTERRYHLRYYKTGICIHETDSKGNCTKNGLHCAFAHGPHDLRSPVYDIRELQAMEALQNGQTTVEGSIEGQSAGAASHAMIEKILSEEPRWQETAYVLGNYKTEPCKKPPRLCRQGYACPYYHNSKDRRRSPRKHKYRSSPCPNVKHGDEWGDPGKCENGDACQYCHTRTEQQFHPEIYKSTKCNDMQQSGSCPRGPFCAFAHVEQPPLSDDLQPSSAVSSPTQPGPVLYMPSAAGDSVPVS", "test": "nsRBNS (natural sequence RNA bind-n-seq); RBNS binding buffer (assumed for nsRBNS): 25 mM Tris pH 7.5, 150 mM KCl, 3 mM MgCl2, 0.01% Triton X-100, 500 ug/ml BSA, 20 U/ml SUPERase-In, 4 C; UNK is unkempt and MSI1 is Musashi-1; names of the RNAs are library labels; protein concentration not given here; high values mean tight binding", "units": {"binding signal": "enrichment R"}}
{"binder": "B1", "binding signal": 0.68}
{"binder": "B2", "binding signal": 0.685}
{"binder": "B3", "binding signal": 8.89}
{"binder": "B4", "binding signal": 1.98}
{"binder": "B5", "binding signal": 2.45}
{"binder": "B6", "binding signal": 0.44}
{"binder": "B7", "binding signal": 0.373}
{"binder": "B8", "binding signal": 0.635}
{"binder": "B9", "binding signal": 0.655}
{"binder": "B10", "binding signal": 4.38}
{"binder": "B11", "binding signal": 0.413}
{"binder": "B12", "binding signal": 0.574}
{"binder": "B13", "binding signal": 0.58}
{"binder": "B14", "binding signal": 0.805}
{"binder": "B15", "binding signal": 2.09}
{"binder": "B16", "binding signal": 0.962}
{"binder": "B17", "binding signal": 20.1}
{"binder": "B18", "binding signal": 0.462}
{"binder": "B19", "binding signal": 0.596}
{"binder": "B20", "binding signal": 4.69}
{"binder": "B21", "binding signal": 27.5}
{"binder": "B22", "binding signal": 0.205}
